In all, about 320,000 compounds went through this assay and about 200 (0.062%) were called active. Inconclusive means that the source gave no clear call. Such entries were picked first, then a sample of the others. Calls follow the shape of the dose curve; as a rule, active = well fitted activation curve with a large enough effect; inconclusive = small, poorly fitted or top-dose-only effect; inactive = no such curve, though single readings can be large or run the other way. Potencies of inconclusive entries are left out as doubtful fits.
Assay: qHTS assay for re-activators of p53 using a Luc reporter; also: nearly all actives have a fitted effect of over 45% in size; as to activity change, positive = activation: % of control where 0% means no effect
Conditions: H1299 p53-A138V BP100-luciferase reporter, luminescence, 24 h; series mostly up to 92.2 µM; activity change, positive = activation: at the top concentration
Procedure, shortened: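 p53-null H1299 cells stably carrying temperature-sensitive p53-A138V and a BP100-luciferase reporter were pinned with compounds (4-point, 1:5 series) and held 24 hrs at 37 deg C. Luminescence was read 10 min after detection reagent.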
Potency is read from the fitted curve at half-maximal effect; tags tell the direction and shape of the fitted curve.

Row | SMILES | Potency | activity change, positive = activation
1 | O=C(c1ccc(Cl)cc1)C1C2C(=O)N(c3ccccc3)C(=O)C2C2CCCN21 (stereo not given) | inconclusive [activator, single point] | –
2 | CCCC1C2C(=O)N(c3ccccc3OC)C(=O)C2ON1c1ccccc1 (stereo not given) | – | inactive: 3.69%
3 | O=[N+]([O-])c1cc(C(F)(F)F)ccc1NCCOc1ccccc1 | inconclusive [activator, full curve, poor fit] | –
4 | CC(C)Cc1nc(N2CCCCC2)c(C#N)c2c1CCC2 | inconclusive [activator, single point] | –
5 | N#Cc1cnc(SCCc2ccccc2)nc1N | inconclusive [activator, partial curve, poor fit] | –
6 | O=C(Nc1ccc(F)cc1F)c1ccc(-n2cccn2)c([N+](=O)[O-])c1 | inconclusive [activator, partial curve, poor fit] | –
7 | CN(C)c1ccc(/C=C(\C#N)C(=O)NCc2ccco2)cc1 | inconclusive [activator, single point] | –
8 | Cc1cc(C(=O)OCC(=O)N2CCc3ccccc32)c(C)o1 | inconclusive [activator, partial curve, poor fit] | –
9 | COc1ccccc1N1CCN(c2ncnc3sc(C)c(-c4ccccc4)c23)CC1 | inconclusive [activator, full curve, poor fit] | –
10 | COc1cnn(-c2ccc(Br)cc2)c(=O)c1SCc1ccccc1 | inconclusive [activator, partial curve, poor fit] | –
11 | COc1ccc(/C=C2/SC(=O)N(CCNC(=O)C3COc4ccccc4O3)C2=O)cc1 (stereo not given) | inconclusive [activator, partial curve, poor fit] | –
12 | COc1ccc(/C=C2\SC(=O)N(CC(=O)NCCCn3ccnc3)C2=O)cc1 | inconclusive [activator, partial curve, poor fit] | –
13 | CCOC(=O)c1c(C)[nH]c(C2=NNC(=Nc3ccccc3OC)SC2)c1C | inconclusive [activator, full curve, poor fit] | –
14 | Cn1c(C(=O)NCc2ccco2)cc2c(=O)[nH]c3ccccc3c21 | – | inactive: -6.79%
15 | O=C(c1cccs1)N1CC=C(c2ccccc2)CC1 | inconclusive [activator, partial curve, poor fit] | –
16 | Cn1c(Cn2nnc3ccccc32)nnc1SCC(=O)c1ccccc1F | inconclusive [activator, partial curve, poor fit] | –
17 | Cc1ccc(Nc2nc(N)nc(CSCCO)n2)cc1 | inconclusive [activator, single point] | –
18 | CN1CCc2c(sc(NC(=O)C3COc4ccccc4O3)c2C(N)=O)C1 (stereo not given) | inconclusive [activator, partial curve, poor fit] | –
19 | Brc1ccc(CNCc2cccs2)cc1 | inconclusive [activator, single point] | –
20 | COc1ccc2oc(=O)c(-c3csc(Nc4ccc(O)cc4)n3)cc2c1 | inconclusive [activator, full curve, poor fit] | –
21 | COC(=O)Nc1nc2c(s1)CCCC2 | inconclusive [activator, single point] | –
22 | Cc1ccc(C(=O)Nc2nc(=O)n(C)s2)cc1 | inconclusive [activator, single point] | –

Row | SMILES | Potency | activity change, positive = activation
23 | CCc1ccc2nc3nc(C)cc(C)c3c(N)c2c1 | inconclusive [activator, single point] | –
24 | CC(Sc1nccn1C)C(=O)NC1(C#N)CCCCC1 (stereo not given) | inconclusive [activator, single point] | –
25 | CN(Cc1ccc(N(C)C)cc1)C(=O)c1cc2ccccc2o1 | inconclusive [activator, partial curve, poor fit] | –
26 | Cc1c2c(nc3c(C(=O)NC4CC4)cnn13)CCCC2 | inconclusive [activator, partial curve, poor fit] | –
27 | O=C(O)CC(SCc1ccc(C(=O)O)o1)C(=O)O (stereo not given) | inconclusive [activator, single point] | –
28 | COc1ccc2cc3cc(C(=O)NCCCN4CCc5ccccc5C4)sc3nc2c1 | inconclusive [activator, partial curve, poor fit] | –
29 | COc1ccc(S(=O)(=O)c2c(C)c(NS(=O)(=O)c3ccccc3)cc(C)c2O)cc1 | – | inactive: -6.98%
30 | CCOC(=O)c1c(N)sc(-c2ccccc2)c1C | inconclusive [activator, partial curve, poor fit] | –
31 | COCCCNCCOCCOc1ccc(Cl)cc1C(C)(C)C | – | inactive: -24.8%
32 | Cc1ccc2nc(NC(=O)CSCC(=O)Nc3cc(C)on3)sc2c1 | inconclusive [activator, partial curve, poor fit] | –
33 | COCc1nnc(NC(=O)CCCOc2ccccc2)s1 | inconclusive [activator, full curve, poor fit] | –
34 | Cc1ccc2nc3sc(C(=O)NCc4ccco4)c(N)c3cc2c1 | inconclusive [activator, partial curve, poor fit] | –
35 | CC(=O)NCCc1nc2cc(NC(=O)Nc3ccccc3)ccc2n1C | inconclusive [activator, single point] | –
36 | Nc1ccccc1NC1=CC(=O)CC(c2ccco2)C1 (stereo not given) | inconclusive [activator, partial curve, poor fit] | –
37 | Cc1cnc(NC(=O)c2ccc3ncsc3c2)s1 | inconclusive [activator, partial curve, poor fit] | –
38 | O=C(CSc1ccc(-c2ccc(F)cc2)nn1)NCc1ccco1 | – | inactive: -6.44%
39 | O=C(Nc1nnc(C2CC2)s1)c1cncc(Br)c1 | inconclusive [activator, full curve, poor fit] | –
40 | COc1ccc(C2/C=C\CN(S(=O)(=O)c3ccc(C)cc3)CC(=O)N2Cc2cccc(F)c2)cc1 (stereo not given) | – | inactive: -0.276%
41 | COc1ccc2c3c(cccc13)C(=O)N(O)C2=O | inconclusive [activator, partial curve, poor fit] | –
42 | CCCc1cc(=O)n2c(nc3ccccc32)[nH]1 | inconclusive [activator, single point] | –
43 | COc1ccc(OCC(=O)NC(=S)N2CCCc3ccccc32)cc1 | inconclusive [activator, partial curve, poor fit] | –
44 | O=C(NCC(=O)N1CCCCCCC1)c1ccco1 | inconclusive [activator, full curve, poor fit] | –

Row | SMILES | Potency | activity change, positive = activation
45 | CCOC(=O)C1CCN(c2nc3ccccc3nc2C(C#N)C(=O)NCCc2ccccc2)CC1 (stereo not given) | inconclusive [activator, partial curve, poor fit] | –
46 | Cc1cc(-c2ccccc2)nc2cc(C(=O)NCc3ccco3)nn12 | – | inactive: 2.96%
47 | O=C(c1ccc2c(c1)OCO2)N1CCN(c2cccc(C(F)(F)F)c2)CC1 | – | inactive: -3.62%
48 | Cc1cc(O)c(C(=O)/C=C/c2ccc(C(C)C)cc2)c(=O)o1 | inconclusive [activator, full curve, poor fit] | –
49 | COc1cccc(/C(C)=N/NS(=O)(=O)c2ccc(Cl)cc2)c1 | – | inactive: -1.92%
50 | COc1ccc(CCNC(=O)c2nn(C)c3c2CS(=O)(=O)c2ccccc2-3)cc1OC | – | inactive: -3.65%
51 | CC(=O)OCC(=O)Nc1ccc(N=Nc2ccccc2)cc1 | inconclusive [activator, full curve, poor fit] | –
52 | CCN(CC)CCNC(=O)c1cc(-c2cccnc2)nc2ccc(S(=O)(=O)N3CCC(C)CC3)cc12 | – | inactive: 6.86%
53 | O=C(NCc1ccco1)c1nc2c(nnn2Cc2ccccc2Cl)c(=O)[nH]1 | inconclusive [activator, partial curve, poor fit] | –
54 | CS(=O)(=O)Nc1ccc(OCc2ccccc2)cc1 | inconclusive [activator, partial curve, poor fit] | –
55 | O=C(CSc1ccccn1)Nc1nc2ccccc2s1 | inconclusive [activator, full curve, poor fit] | –
56 | CCc1ccc(O)c(-c2cc(C(=O)Nc3cccnc3)[nH]n2)c1 | inconclusive [activator, partial curve, poor fit] | –
57 | c1ccc(-c2csc(N3CCc4ccccc4C3)n2)cc1 | inconclusive [activator, partial curve, poor fit] | –
58 | O=[N+]([O-])c1ccc(-c2ccc(/C=N/c3c(-c4ccco4)nc4ccccn34)o2)cc1 | inconclusive [activator, single point] | –
59 | O=C(CSc1nnnn1-c1cccc(O)c1)NC1CC1 | – | inactive: 16.7%
60 | c1nc(NC2CCCCC2)c2[nH]cnc2n1 | inconclusive [activator, single point] | –
61 | CCN(CC)C1CCN(C(=O)c2ccc(OC3CCN(CCc4ccccc4)CC3)cc2)C1 (stereo not given) | inconclusive [activator, single point] | –
62 | CCN1C(=S)SC(=O)C1=C1C=C(C)N(CCOC)C(C)=C1 | inconclusive [activator, partial curve, poor fit] | –
63 | O=c1[nH]c(-c2ccco2)nc2sc3c(c12)CCCC3 | inconclusive [activator, full curve, poor fit] | –
64 | CCn1cnc2cc(NCc3nc4ccccc4n3C)ccc21 | inconclusive [activator, full curve, poor fit] | –
65 | Cc1ccc2oc(=O)c(-c3ccc(O)cc3)c(C)c2c1 | inconclusive [activator, full curve, poor fit] | –

From PubChem BioAssay AID504706 (National Center for Advancing Translational Sciences (NCATS), 2011)
